# Reference: paper PMC10215934, “Daptomycin Pharmacokinetics in Blood and Wound Fluid in Critical Ill Patients with Left Ventricle Assist Devices” (Antibiotics, 2023)
# Values joined by “and” are separate entries in the source; they are usually repeats but may differ in a detail not shown here. Equal entries are not always repeated.
# What was measured:
# [1] = Penetration of daptomycin from blood into wound fluid (AUCdrain/AUCblood, Rmcorr correlation); format: in vivo, human; details: Day 3; mean ± SD, n = 9
# Method: Samples were taken following the schedule below (Table 3).
# All daptomycin values in the blood serum and wound fluids, from pleura and mediastinum, were examined among themselves and over time using a repeated measure correlation. Continuous measures were summarized as the means, standard deviation, medians, and interquartile ranges (IQR) according to the data distribution. The normality of the distribution was assessed by investigating skewness and kurtosis, as well as QQ graphs, box plots, and histograms. The association between blood and wound fluid daptomycin mean levels was examined using repeated measures correlation (R package rmcorr; version 0.5.4), which determined the relationship between two continuous variables while controlling for individual variances. The rmcorr correlation coefficient is a common statistical method for paired measurements assessed on two or more occasions for multiple individuals. Similar to the Pearson correlation coefficient, the rmcorr coefficient (rrm) ranges from −1 to +1 and reports the strength of the linear association between two variables. Linear mixed effect models assessed the difference in the mean daptomycin concentration in the blood serum during the three-time points with random intercepts; the slopes were set as fixed parameters. A two-tailed p-value below 0.05 was considered statistically significant. […]
# [2] = Daptomycin pharmacokinetics in blood serum, HPLC-UV; details: for Cminblood / half-life: LVAD patients, 5-8 mg/kg iv once daily, mean ± SD, n = 9; for level at 1 h / level at 12 h / level at 24 h / half-life: human, in vivo, iv; for level at 1 h / level at 12 h / level at 24 h: Daptomycin concentration, blood; for half-life: t1/2blood (terminal half-life blood)
# Method: (§1) This single-center prospective trial was carried out in the intensive care unit 39 of the department of anesthesia and intensive care medicine at the university hospital of Tübingen from April 2017 to March 2019. All patients scheduled for implantation of a left ventricular assist device were screened for inclusion and exclusion criteria. All patients received prophylactic antibiotic therapy, including daptomycin, during the first 5 or 7 postoperative days. Daptomycin (5 to 8 mg per kg of body weight) was infused over 30 min, once daily, at 7 a.m. Samples were taken following the schedule below (Table 3).
# (§2) Blood samples were drawn from the arterial catheter already in place and considering hygiene requirements. The fluid samples from the drain systems were taken from the incorporated port under consideration of the standard hygienic procedures to avoid any contamination of the system. The samples were labeled with the number of the patient, the time of collection, and the date following the study protocol. All samples were centrifuged, and the supernatant was stored at −80 °C until dispatch to the laboratory in Heidenheim (Department of Pharmacy, General Hospital of Heidenheim). Measurements were performed using high-performance liquid chromatography with ultraviolet detection (HPLC-UV).
# (§3) Daptomycin (5–8 mg per kg body weight; MSD; Switzerland) was infused intravenously once daily as part of an anti-infective regime to prevent early infections of either the implanted pump or the driveline at 7 am. Blood samples were drawn from the arterial catheter already in place, and samples of wound fluids were taken from the drainage system directly from the incorporated port before they reached the container at indicated time points, considering standard hygienic requirements.
# (§4) The HPLC-UV measurement for daptomycin was conducted as part of the routine TDM program at the hospital of Heidenheim. Although data for certain target levels are sparse, there is an approach to reach AUC24/MHK >666 mg*h/L for effectivity and trough levels <24 mg/L and to minimize musculosceletal toxicity.
# (§5) A detailed description of the HPLC method and validation process is included in the supplementary material (Informations S1). Briefly, a gradient method carried out the separation of daptomycin in the serum and wound fluid on a C8 reversed-phase column.
# [3] = Daptomycin concentration in wound (drainage) fluid, HPLC-UV
# Method: as §1, §2, §3, §4, §5
# [4] = human, in vivo, iv, 6 mg/kg, Daptomycin concentration, drainage
# [5] = human, in vivo, iv, 8 mg/kg, Daptomycin concentration, drainage
compound,measurement,setting,value
CCCCCCCCCC(=O)N[C@@H](Cc1c[nH]c2ccccc12)C(=O)N[C@H](CC(N)=O)C(=O)N[C@@H](CC(=O)O)C(=O)N[C@@H]1C(=O)NCC(=O)N[C@@H](CCCN)C(=O)N[C@@H](CC(=O)O)C(=O)N[C@H](C)C(=O)N[C@@H](CC(=O)O)C(=O)NCC(=O)N[C@H](CO)C(=O)N[C@@H]([C@H](C)CC(=O)O)C(=O)N[C@@H](CC(=O)c2ccccc2N)C(=O)O[C@@H]1C [Daptomycin],PR: penetration ratio (AUCdrain/AUCblood),[1],0.5 ± 0.1
same,Cminblood,[2]; Day 1,24100 ± 5900 ng/mL
same,Cminblood,[2]; Day 2,29800 ± 6700 ng/mL
same,Cminblood,[2]; Day 3,29900 ± 10200 ng/mL
same,level at 1 h,[2]; 4 mg/kg,126000 ng/mL
same,level at 12 h,[2]; 4 mg/kg,50500 ng/mL
same,level at 24 h,[2]; 4 mg/kg,38600 ng/mL
same,level at 1 h,[2]; 6 mg/kg,69000 ng/mL
same,level at 12 h,[2]; 6 mg/kg,41700 ng/mL
same,level at 24 h,[2]; 6 mg/kg,30100 ng/mL
same,level at 1 h,[2]; 8 mg/kg,92800 ng/mL
same,level at 12 h,[2]; 8 mg/kg,68400 ng/mL
same,level at 24 h,[2]; 8 mg/kg,32600 ng/mL
same,half-life,[2]; Day 1,14.1 ± 4 h
same,half-life,[2]; Day 2,15.8 ± 3.2 h
same,half-life,[2]; Day 3,20.5 ± 6.7 h
same,"Daptomycin concentration, drainage","[3]; Patient 7 (5 mg/kg), Drainage 1, Day 1 08:00, 1 h after infusion",0 mg/L
same,"Daptomycin concentration, drainage","[3]; Patient 7 (5 mg/kg), Drainage 2, Day 1 08:00, 1 h after infusion",0 mg/L
same,"Daptomycin concentration, drainage","[3]; Patient 9 (6 mg/kg, dialysis), Drainage 2, Day 1 08:00, 1 h after infusion",0 mg/L
same,"Daptomycin concentration, drainage","[3]; human, in vivo, iv, 4 mg/kg, 1 h",10.1 mg/L
same,"Daptomycin concentration, drainage","[3]; human, in vivo, iv, 4 mg/kg, 6 h",15.6 mg/L
same,"Daptomycin concentration, drainage","[3]; human, in vivo, iv, 4 mg/kg, 9 h",33.2 mg/L
same,"Daptomycin concentration, drainage","[3]; human, in vivo, iv, 4 mg/kg, 24 h",15 mg/L
same,"Daptomycin concentration, drainage","[3]; human, in vivo, iv, 6 mg/kg, 12 h",22.5 mg/L
same,level at 6 h,[3]; [4],38200 ng/mL and 21800 ng/mL
same,level at 9 h,[3]; [4],31100 ng/mL
same,level at 12 h,[3]; [4],32800 ng/mL
same,"Daptomycin concentration, drainage","[3]; human, in vivo, iv, 7 mg/kg, 1 h",15.2 mg/L
same,"Daptomycin concentration, drainage","[3]; human, in vivo, iv, 7 mg/kg, 3 h",20.7 mg/L
same,"Daptomycin concentration, drainage","[3]; human, in vivo, iv, 7 mg/kg, 9 h",27.5 mg/L
same,"Daptomycin concentration, drainage","[3]; human, in vivo, iv, 7 mg/kg, 12 h",27.3 mg/L
same,"Daptomycin concentration, drainage","[3]; human, in vivo, iv, 7 mg/kg, 24 h",20.3 mg/L
same,level at 6 h,"[3]; human, in vivo, iv, 8 mg/kg",24300 ng/mL
same,level at 9 h,[3]; [5],21500 ng/mL
same,level at 12 h,[3]; [5],20600 ng/mL
